{"source": "paper PMC12136788", "binders": {"B1": {"name": "chr2:226864888:226864989:+|CDS|ENSG00000144468|unk|total|mutant (ssRNA)", "RNA": "GGGAGUUCUACAGUCCGACGAUCUGCUGAUGAUUGGCAUUUGUAUUUCAAUAUGGCAUCCAUGCUCUGGAAAGGAAUAAAUCCCGAAAGAAGACUGGGAAGCCGAUGGUUUGCCUAUGUUAUCACCGCAUUUUCUGUACUUACCAACAGAGGAUUGAGCAUCA"}, "B2": {"name": "chr4:24540214:24540319:-|CDS|ENSG00000109606|unk|total|mutant (ssRNA)", "RNA": "GGGAGUUCUACAGUCCGACGAUCUACUUUGUCACAUUUUUGCUUGCUUAAGGCACCGUGUCUAACCGAUUGUCUUUUACCACCCGCUCCUGAAACUCUGAUGAGAGCCCUGGAACUUUUGAAUUACCUGGCUGCUUUAAAUGACAACAGAGGAUUGAGCAUCA"}, "B3": {"name": "chr11:70485313:70487720:-|CDS|ENSG00000162105|control|control|control (ssRNA)", "RNA": "GGGAGUUCUACAGUCCGACGAUCUGGGGCGACGUCACAGAGAUCAAAAGCCCGAUUCUCUCAGGCCCAAAGGCAAACGUUAUUAGUGAAUUGAACUCUAUCCUACAGCAAAUGAACCGAGAGAAAUUGGCAAAGCCGGGGGAACAACAGAGGAUUGAGCAUCA"}, "B4": {"name": "ENSG00000198589:be:win_1451|CDS|ENSG00000198589|bound_else_gene|NA|bound_elsewhere_windowed (ssRNA)", "RNA": "GGGAGUUCUACAGUCCGACGAUCAUUACAGGCAAUAUUUGUCUGAUGAGAUUGAUUUGACUAUAUGUUCAACCUUGCUGGCCUUUAUCAUGGAAUUGUUGAAGAACUCAAUUGCUAUGCAGGAACAGAUGCUUGCCUGUAAGGCAACAGAGGAUUGAGCAUCA"}, "B5": {"name": "chr7:138585310:138585366:+|3pUTR|ENSG00000122779|msi1_unk|FALSE|overlapping (ssRNA)", "RNA": "GGGAGUUCUACAGUCCGACGAUCCUCUUUAAGUUGAAAAGUAAAAAAUAUAUGUGGUUUGGAUGUGUGCUUUAAUUCAGCUUUAGAAAUUAAUACCACUACCCGUGAAUUAUAUGGCCUGACAAUAUGAAUUAGGUGUACUGUCAACAGAGGAUUGAGCAUCA"}, "B6": {"name": "chr9:88477803:88477904:+|3pUTR|ENSG00000106723|msi1|total|mutant (ssRNA)", "RNA": "GGGAGUUCUACAGUCCGACGAUCGACAAUACAAGACAUGAAUCUAUGUAUAAAAUUUAUCGGCCUUUCUCAUUUACCUGCUCCCGUAUUAUUGUAUUGUGUGUGCGUGCGUGUGUGAUGUCAGGCUGCCACGUAAAACUUCAGCAACAGAGGAUUGAGCAUCA"}, "B7": {"name": "chr1:84929557:84929679:-|CDS|ENSG00000153898|control|control|control (ssRNA)", "RNA": "GGGAGUUCUACAGUCCGACGAUCAAAUUCCAACAGAAUGGGUUUCCUGAAACGGAUUUGCAGGAAUUCCUGAAGGAAUGCAGUAGCAAAGAAGAGUAUCAGAAAGAGUCCUCAGCCUUCCUGUCCUGCAUCUGCUGUCGGAGGCAACAGAGGAUUGAGCAUCA"}, "B8": {"name": "chr3:31636526:31636632:+|3pUTR|ENSG00000163527|unk|total|mutant (ssRNA)", "RNA": "GGGAGUUCUACAGUCCGACGAUCCAAAAUGUGAUGAGAGCUUCUUGAACCGGUAAACCCGUACAGGUCUGAGAAAGACAUAUCCGAAGAAUCAUUAUACUUCCUUGAAUUAUAUUUAUUUUCAUGUUUCUCUAAUGCAAAGAACAACAGAGGAUUGAGCAUCA"}, "B9": {"name": "chr9:34253332:34253433:-|3pUTR|ENSG00000186638|unk|total|mutant (ssRNA)", "RNA": "GGGAGUUCUACAGUCCGACGAUCCUCUGAAACAGAAUUCACACACAAACCUUCAGCCAAGUUCUGCCUGCUGUGUAUCUUUUCCGCAGGAAGCAGCUCAGGACAGGGAAGACAAAGCCGCCUCCAGGUGCCAAUUACUUUAAACAACAGAGGAUUGAGCAUCA"}, "B10": {"name": "chr5:113567122:113567223:+|CDS|ENSG00000047188|unk|total|mutant (ssRNA)", "RNA": "GGGAGUUCUACAGUCCGACGAUCAAACUCUGAGAAUUGGGCUGUCGUUAAAGCUGCAUUGGUGGCAGGCAUGUAUCCUAAUUCCGUCCACGUGGACAGAGAGAAUCCCGUGUUGACAGGGCCAAAGGAGAAAAAAGUACGAUUCAACAGAGGAUUGAGCAUCA"}, "B11": {"name": "ENSG00000198589:be:win_2951|CDS|ENSG00000198589|bound_else_gene|NA|bound_elsewhere_windowed (ssRNA)", "RNA": "GGGAGUUCUACAGUCCGACGAUCAUUUCACCACAAAUGGUAAUGAAAAUUCAAGUAUAGAGAAGACAAGUUCACUAGAAUCUGCAUCUAAUAUUGAACUGCAAACUACUAAUACAUCUUAUGAAGAAAUGAAAGCUGAGCAAGCAACAGAGGAUUGAGCAUCA"}, "B12": {"name": "chr15:58597255:58597356:-|3pUTR|ENSG00000137845|unk|FALSE|unique (ssRNA)", "RNA": "GGGAGUUCUACAGUCCGACGAUCUGGAAAAGGAACCCAAUUUUCUUAUGAACAGAUAUUUUUAACUUAAUGGCACAAAGUCUUAGAAUAUUAUUAUGUGCCCCGUGUUCCCUGUUCUUCGUUGCUGCAUUUUCUUCACUUGCACAACAGAGGAUUGAGCAUCA"}, "B13": {"name": "chr10:116663695:116664169:-|three_prime_utr|ENSG00000165863|control|control|control (ssRNA)", "RNA": "GGGAGUUCUACAGUCCGACGAUCCUUUCCUUCCUACUACCGUUUUAAAAAGGGGAUGAAAUGUUUGCAGUGGCCUUUCUGCUUAGCUGGGCCAGCUCCCUGCAACUCACACGGACGGUUCCUCUCCUAGAUGGAAGCUGCCCUCAACAGAGGAUUGAGCAUCA"}, "B14": {"name": "chr3:141443649:141443750:+|CDS|ENSG00000177311|unk|total|mutant (ssRNA)", "RNA": "GGGAGUUCUACAGUCCGACGAUCCCUACCAUUGGACAAAAUGGAGGUUCAUUCACAGGUCCAGAACCUUUAUUAUCUGAAAACCGGAUUGGUGAAUUUUCCAGUACCGGAAGUACUUUGCCAGACACGGACCACAUGGUUAAACAACAGAGGAUUGAGCAUCA"}}, "note": "The other results are listed elsewhere or left out.", "data": [{"target": "MSI1 full-length (mouse, UniProt Q61474 1-362)", "sequence (Q61474 whole entry)": "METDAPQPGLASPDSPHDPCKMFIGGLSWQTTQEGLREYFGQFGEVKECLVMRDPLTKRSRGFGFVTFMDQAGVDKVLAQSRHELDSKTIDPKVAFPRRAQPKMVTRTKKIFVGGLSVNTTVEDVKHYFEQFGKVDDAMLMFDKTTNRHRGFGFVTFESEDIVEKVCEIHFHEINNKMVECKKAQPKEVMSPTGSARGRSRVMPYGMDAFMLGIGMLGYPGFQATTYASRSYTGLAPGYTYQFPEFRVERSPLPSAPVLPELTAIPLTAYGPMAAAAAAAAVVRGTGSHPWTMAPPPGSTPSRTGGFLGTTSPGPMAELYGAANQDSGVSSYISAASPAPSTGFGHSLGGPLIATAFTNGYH", "experiment": "nsRBNS (natural sequence RNA bind-n-seq); RBNS binding buffer (assumed for nsRBNS): 25 mM Tris pH 7.5, 150 mM KCl, 3 mM MgCl2, 0.01% Triton X-100, 500 ug/ml BSA, 20 U/ml SUPERase-In, 4 C; UNK is unkempt and MSI1 is Musashi-1; names of the RNAs are library labels; protein concentration not given here; high values mean tight binding", "units": {"binding signal": "enrichment R"}, "values": [{"binder": "B1", "binding signal": 0.203}, {"binder": "B2", "binding signal": 0.272}, {"binder": "B3", "binding signal": 0.762}, {"binder": "B4", "binding signal": 0.173}, {"binder": "B5", "binding signal": 4.02}, {"binder": "B6", "binding signal": 0.449}, {"binder": "B7", "binding signal": 0.635}, {"binder": "B8", "binding signal": 0.225}, {"binder": "B9", "binding signal": 0.52}, {"binder": "B10", "binding signal": 0.446}, {"binder": "B11", "binding signal": 0.486}, {"binder": "B12", "binding signal": 7.03}, {"binder": "B13", "binding signal": 0.509}, {"binder": "B14", "binding signal": 0.294}]}]}
